96 molecules from PubChem BioAssay AID485344 (National Center for Advancing Translational Sciences (NCATS), 2010) can be followed below.

The campaign covered roughly 340,000 compounds. About 6,900 (2%) were called active. No stated cut-off is given here; in the data, active means inhibition above about 30%; inactive means below that, where a call was filed. The list shows a part of the results, in another mix than the full data. The source gives no active or inactive call for entries shown without one.

Sequence of UniProt P14416 (P14416 whole entry, looked up): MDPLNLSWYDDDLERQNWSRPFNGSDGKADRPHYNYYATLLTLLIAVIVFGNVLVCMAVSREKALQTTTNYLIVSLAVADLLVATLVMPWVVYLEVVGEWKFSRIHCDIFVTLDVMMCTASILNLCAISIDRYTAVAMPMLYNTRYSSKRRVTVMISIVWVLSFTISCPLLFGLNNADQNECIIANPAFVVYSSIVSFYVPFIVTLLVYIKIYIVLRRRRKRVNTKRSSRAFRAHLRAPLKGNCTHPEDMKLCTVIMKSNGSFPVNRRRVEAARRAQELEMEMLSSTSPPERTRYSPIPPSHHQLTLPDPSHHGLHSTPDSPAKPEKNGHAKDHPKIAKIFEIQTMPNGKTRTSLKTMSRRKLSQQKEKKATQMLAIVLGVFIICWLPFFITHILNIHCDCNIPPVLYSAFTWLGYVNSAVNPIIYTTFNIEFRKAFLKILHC

This test concerns the target D(2) dopamine receptor (Homo sapiens) (UniProt P14416). Kind of test: HTS Assay for Allosteric Antagonists of the Human D2 Dopamine Receptor: Primary Screen for Antagonists. Further: 0% is about no effect. The note with it: HEK293 TREx D2 cells, calcium flux, dopamine EC80; at 10 µM; stronger effect = higher value. In outline:
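Tetracycline-induced HEK293 T-REx cells expressing D2 force-coupled to calcium signalling were dye-loaded, exposed to compound for 180 s, then challenged with an EC80 of dopamine; calcium flux was followed kinetically for a further 180 s.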
(In general: Calcium flux is commonly read through the fluorescence of an indicator in the cells.)
One may read the inhibition as the drop in the measured response relative to a control, in per cent. As to `Cc1cccc(C(=O)N2CCC(N3CCN(Cc4ccc(F)cc4)C(=O)C3=O)CC2)c1`, the inhibition amounted to 2.64%.
With `Cc1cc2c(cc3c(SCc4cccc(F)c4)nnc(C)n32)o1`, the inhibition was 4.23%.
With `COC(=O)c1ccc(Cl)cc1NC(=O)NC(C)c1c(-n2cccc2)sc(C)c1C` (stereo unspecified) the figure was -8.06%; with `COc1ccc(NC(=O)CCc2nc3cccnc3n2-c2ccccc2)cc1Cl`, -16.1%.
The same measure for `CCc1ccccc1NC(=O)CSc1nc2ncccc2o1`: -17.2%.
The same measure for `O=C(CCc1ccccc1)N1CCc2c([nH]c3ccccc23)C1c1ccc(Cl)cc1` (stereo unspecified): 8.7%; for `Cc1oc2ccc(O)c(CN3CCCCC3C)c2c1C(=O)Nc1ccccc1` (stereo unspecified): 20.9%.
For the molecule `O=C(CC(c1cccs1)N1Cc2ccccc2C1=O)Nc1ccc(F)cc1F` (stereo unspecified), the inhibition was found to be 4.55%.
The same measure for `COc1ccc(C(CNC(=O)Cc2ccc(Cl)cc2)N2CCOCC2)cc1` (stereo unspecified): -1.72%.
The same measure for `Cc1oc2ncn(C)c(=O)c2c1C(=O)N(Cc1ccccc1)C(C)C`: -5.1%; for `Cc1ccc(Cl)cc1N1CCN(C(=O)c2ccc(CS(=O)(=O)c3ccc(Br)cc3)o2)CC1`: 5.7%.
With `CCOC(=O)c1c(C)[nH]c(CCC(=O)NCc2cccc(OC)c2)c1C` the figure was -1.6%; with `Cc1ccc(Cl)cc1N1CCN(C(=O)CCn2c(=O)c3cccn3c3cccnc32)CC1`, -0.712%.
On to `COCCn1c(SCC(=O)Nc2cccc(C)c2C)nc2c(oc3ccccc32)c1=O`, for which the inhibition was -6.42%.
The same measure for `Cc1cc(-c2ccc(S(=O)(=O)Nc3cc(Cl)ccc3C)s2)on1`: 7.32%; for `COc1ccc(CCNC(=O)c2cc3c(-c4ccc(OC)c(OC)c4)nn(C)c3s2)cc1OC`: -2.01%; for `CCCCOc1ccc(CN(C)c2ncnc(N)n2)cc1`: active: 30.7%.
As for `CCOC(=O)C1CCCN(c2c(C(=O)c3ccc(C)cc3)cnc3ccc(OCC)cc23)C1` (stereo unspecified), the inhibition was found to be 15%.
With `COc1ccc(CC(=O)Nc2ccc3nc(Nc4cccc(Cl)c4)cc(C)c3c2)cc1`, the inhibition was -9.23%.
With `COc1ccc(CN2CCN(c3ncccn3)CC2)c(OC)c1` the figure was active: 69.1%.
Take `Cc1ccccc1NC(=O)NCCCN1CCN(c2ccccc2)CC1`: the inhibition is active: 79.2%.
With `Nc1c(C(=O)NCCc2ccccc2)nnn1CC(=O)Nc1ccc(Cl)cc1`, the inhibition stood at 6.01%.
The same measure for `COc1cc(NS(=O)(=O)c2ccc3[nH]c4c(c3c2)CCCC4)cc(OC)c1OC`: -11.4%.
On to `C=Cc1ccc(Cn2c(C(=O)O)c(CNCCc3ccccc3)c3ccc(C)cc32)cc1`, for which the inhibition was -0.855%.
With `CCCn1c(CCC(=O)Nc2cccc(C)c2C)nc2cccnc21` the figure was 4.83%; with `Cc1ccccc1OCCCCn1c(C2CC(=O)N(c3ccccc3Cl)C2)nc2ccccc21` (stereo unspecified), -18.9%; with `COc1ccc(CNC(=O)CCC2N=C3c4ccccc4N=C(SCc4ccc(F)cc4)N3C2=O)cc1` (stereo unspecified), 6.83%.
The same measure for `CCN1CCOC(=O)C1CC(=O)Nc1ccc(C)c(Cl)c1` (stereo unspecified): 6.05%.
The same measure for `COc1ccc(OC)c(NC(=O)c2c(NCc3ccc(OC)c(OC)c3)sc3c2CCC(C)C3)c1` (stereo unspecified): 13.4%.
As to `Nc1c(C(=O)Nc2cccc(F)c2)sc2nc(-c3cccs3)ccc12`, the inhibition is -3.29%.
The same measure for `Cc1ccc(S(=O)(=O)N(C)C)cc1NC(=O)Nc1ccccc1F`: active: 64.5%; for `CN1CCN(C2(CNC(=O)c3ccc([N+](=O)[O-])cc3)CCCCC2)CC1`: 5.84%; for `Cc1cc(C)nc(NS(=O)(=O)c2ccc(NC(=O)c3cc(=O)c4ccc(C)c(C)c4o3)cc2)n1`: 5.65%.
With `Cc1ccccc1-c1nc2scc(CCNC(=O)C(=O)Nc3ccc(F)cc3F)n2n1` the figure was 9.97%; with `COCCCn1c(=O)c2sccc2n2c(CCCC(=O)Nc3ccc(F)c(F)c3)nnc12`, 3.16%.
In the case of `Cc1ccc2nc(NC(=O)c3ccc(S(=O)(=O)N4CCCc5ccccc54)cc3)sc2c1`, the inhibition was -2.86%.
The same measure for `COc1ccc(OC)c(-c2nn(-c3ccccc3)cc2C(=O)NCC(c2ccco2)N2CCCC2)c1` (stereo unspecified): active: 36.5%; for `CC(CCc1ccccc1)NC(=O)C(=O)Nc1ccccc1` (stereo unspecified): active: 72.3%; for `COc1ccc(C(=O)N2c3nc(-c4ccco4)nn3C3(CCCCC3)[C@@H]3CCCC[C@@H]32)cc1OC`: -14.4%.
With `O=C(NC1CCCCC1)c1ccc(Cn2c(SCc3ccccc3)nc3cccnc32)cc1` the figure was -0.137%; with `Cc1c(NC(=O)c2cccc(NC(=O)Cc3ccc(Cl)cc3)c2)c(=O)n(-c2ccccc2)n1C`, active: 32.7%.
Take `CCC(Oc1ccc(F)cc1)C(=O)Nc1nc2c(s1)CCCC2` (stereo unspecified): the inhibition worked out at 4.47%.
The same measure for `CCc1ccc(-c2cc(C)no2)cc1S(=O)(=O)NCc1ccco1`: 3.29%; for `COc1ccc(C2c3c(n(C)c4ccccc34)C(=O)N2CC(=O)Nc2ccc(C)cc2Cl)cc1` (stereo unspecified): 2.24%; for `CCc1ccc(CNC(=O)Cn2nc(-c3ccc(Cl)cc3)ccc2=O)cc1`: 7.28%.
With `CCN(CC)S(=O)(=O)c1ccc(-c2csc(=Nc3cccc(C(F)(F)F)c3)n2Cc2ccc3c(c2)OCO3)cc1` the figure was -8.75%; with `COC(=O)Cc1cc(=O)n(-c2nc3ccccc3s2)[nH]1`, active: 36.2%; with `Cc1ccc(S(=O)(=O)N2CCCc3cc(NS(=O)(=O)c4ccc(F)cc4)ccc32)cc1`, 18.4%.
The same measure for `COc1cccc(NC(=O)Cn2c(=O)n(Cc3ccc(C(=O)NCc4ccc5c(c4)OCO5)cc3)c(=O)c3ccccc32)c1`: -5.16%.
For the molecule `CN(C)c1ccc(CNC(=O)C2CCN(S(=O)(=O)c3ccc4c(c3)oc(=O)n4C)CC2)cc1`, the inhibition was -9.48%.
With `CCCCCCc1cc2cc(-c3nnc(-c4cccc(Cl)c4)o3)c(=O)oc2cc1O` the figure was -3.51%; with `Cc1ccc(NC(=O)c2oc3ccc(S(=O)(=O)N4CCCCC4)cc3c2C)c(C)c1`, -19.4%.
`Cc1cccc(N2CCN(C(=O)C(C)n3nc(C)n4c(cc5occc54)c3=O)CC2)c1C` (stereo unspecified): the inhibition is -11.6%.
With `Cc1cc(C)c(NC(=O)c2c(C)oc3c2C2=NCCN2C=N3)c(C)c1` the figure was -8.84%.
With `Cc1cc(C)c(NC(=O)CN2C(=O)C3(SCC(=O)N3c3ccc(F)cc3)c3ccccc32)c(C)c1` (stereo unspecified) the figure was 9.2%.
In the case of `Cc1ccc(S(=O)(=O)NCCc2nnc3ccc(SCc4ccccc4F)nn23)cc1`, the inhibition was -23.1%.
In the case of `Cc1ccc(N(CC(=O)Nc2ccc(F)cc2F)S(=O)(=O)c2cccs2)cc1`, the inhibition was 6.95%.
With `CCC(=O)C1=C(c2ccccc2)N(C(=O)CC)n2c(nnc2-c2ccccc2)S1` the figure was 20.5%; with `NC(=O)c1ccccc1NC(=O)CN1CCOCC1`, active: 31.4%.
Take `COc1ccc(-c2cccc(NS(=O)(=O)c3cc(C(F)(F)F)ccc3Cl)c2)nn1`: the inhibition came out at 12.6%.
The same measure for `O=c1c(NCc2cccs2)nccn1-c1ccccc1`: -2.35%.
As to `COc1ccc(-n2cc(-c3ccccc3)c3c(N4CCCC(C)C4)ncnc32)cc1` (stereo unspecified), the inhibition stood at 14.6%.
With `CCc1nc2ccc(C(=O)NCc3ccccc3C)cc2nc1CC` the figure was 24.7%.
Consider `Cc1ccc(CN2c3ccccc3-c3nc(SCC(=O)NCc4ccccc4)ncc3S2(=O)=O)cc1`, for which the inhibition was determined as 6.65%.
The same measure for `COc1ccc(C(=O)NCCc2csc(-c3ccc(Cl)cc3)n2)cc1`: 7%; for `CCOC(=O)c1cc2c(=O)n3ccccc3nc2n(CC2CCCO2)c1=NC(=O)c1cccc(C)c1` (stereo unspecified): 14.6%; for `O=C(COc1ccccc1F)Nc1nnc(SCc2cc(=O)n3ccccc3n2)s1`: -8.5%.
The same measure for `CCOC(=O)c1c(NC(=O)Nc2ccc(F)cc2)sc(C(=O)N(C)C)c1C`: -6.11%.
With `Cc1ccccc1Cn1nnc2sc3c(c2c1=O)CCCC3`, the inhibition was -8.9%.
With `CCOc1ccc(NC(=O)Nc2nnc(N3CCCCC3C)s2)cc1` (stereo unspecified) the figure was 13%.
With `CCOC(=O)c1sc2ccccc2c1S(=O)(=O)Nc1ccc(OC)c(Cl)c1` the figure was 19%.
As to `COc1cccc(CNC(=O)c2c(C)nn(-c3ccc(F)cc3)c2-n2cccc2)c1`, the inhibition was -5.47%.
With `Cc1ccc(NC(=O)Nc2nnc(SCC(=O)N(C(C)C)C(C)C)s2)cc1` the figure was 12.7%; with `O=S(=O)(NCCc1csc(-c2cccnc2)n1)c1cc(F)ccc1F`, active: 39.4%; with `CCN(CC)c1ccc(C(=O)N2CCc3c([nH]c4ccccc34)C2c2ccc(F)cc2)cc1` (stereo unspecified), -2.29%.
The same measure for `CCN1CCCC1CNC(=O)c1ccc(Sc2ccc(F)cc2)c([N+](=O)[O-])c1` (stereo unspecified): active: 34.7%.
The same measure for `CC(=O)N1CCc2c(sc3c2c(=O)n(Cc2ccccc2)c(=O)n3Cc2ccc(Cl)cc2)C1`: 4.88%; for `Cc1cc(C)c(Cn2c(=O)n(CCC(=O)NCCc3ccccc3)c(=O)c3ccccc32)c(C)c1`: 14.2%.
As for `COc1ccc(OC)c(CCNC(=O)c2c(C)oc3ncn(CC(C)C)c(=O)c23)c1`, the inhibition is -9.37%.
With `CN1CCN(C(CNC(=O)c2ccc(F)cc2)c2ccc3c(c2)OCO3)CC1` (stereo unspecified) the figure was -24.9%; with `CCOCCCn1c(SCC(=O)Nc2ccccc2CC)nc2ccccc2c1=O`, 5.21%.
With `CCOC(=O)Cn1c(=O)oc2cc(S(=O)(=O)N3CCN(c4cccc(Cl)c4)CC3)ccc21` the figure was 4.95%; with `O=C(O)c1sc(Nc2ccccc2)nc1-c1ccccc1`, -11.4%; with `CCCCc1ccc(-n2nc3ccc(NC(=O)c4cc5ccccc5o4)cc3n2)cc1`, 1.8%.
The same measure for `CC(C)Cc1cc(C(=O)NCc2ccc(Cl)cc2)no1`: -18.1%.
For `Clc1ccc(CSc2ccc(-c3cccs3)nn2)cc1`, the inhibition was 9.38%.
The same measure for `COc1ccc(C(=O)NCCSc2c[nH]c3ccccc23)cc1OC`: 3.46%; for `CSc1ncc(C(=O)Nc2cc(C)cc(C)c2)c(-c2ccccc2)n1`: -7.22%; for `CCC(CC)C(=O)N1c2ccccc2C(C)(c2ccccc2)CC1(C)C` (stereo unspecified): -8.99%.
`COC(=O)CN1C(=O)CSc2ccc(S(=O)(=O)Nc3ccc(F)c(Cl)c3)cc21`: the inhibition stood at 0.0691%.
The same measure for `COc1ccc(-n2c(=O)c3c4c(sc3n(Cc3ccc(F)cc3)c2=O)CN(C(C)=O)CC4)c(OC)c1`: 5.79%; for `O=C(Cn1cc(S(=O)(=O)Cc2cccc(Cl)c2)c2ccccc21)Nc1ccccc1C(F)(F)F`: 14.6%.
With `O=C(CCN=C1NS(=O)(=O)c2ccccc21)Nc1ccc(Cl)cc1F` the figure was active: 40.1%; with `COc1ccccc1CNC(=O)CSc1nc(-c2ccc(OC)c(OC)c2)cc(C(F)(F)F)n1`, -6.57%; with `O=C(NCC(c1cccs1)S(=O)(=O)c1cccs1)c1ccc(F)c(F)c1` (stereo unspecified), -9.38%.
The same measure for `CCOc1ccc(CCNC(=O)c2ccc3c(c2)N(Cc2ccc(F)cc2)CCS3)cc1`: -8.54%.
